Experimental data from the antibiotic and cytotoxicity screens of Wong et al. (2023).
The list shows a part of the results.

system: HepG2; experiment: cytotoxicity call (relative viability < 0.9); settings: 10 µM

| Structure (SMILES) | cytotoxicity call |
| --- | --- |
| COc1ccc2c3c([nH]c2c1)[C@@H](CO)N(C[C@]13CCN(CC1)Cc1ccccc1)C(=O)CN1CCOCC1 | inactive |
| Cc1ccc(-c2cnc3c(c2)C(=O)N([C@@H](C)CO)C[C@H](C)[C@@H](CN(C)C(=O)Cc2cccnc2)O3)cc1 | inactive |
| C[C@@H]1CN([C@H](C)CO)C(=O)Cc2cc(NC(=O)CCN3CCOCC3)ccc2O[C@@H]1CN(C)Cc1ccc(C(=O)Nc2ccccc2N)cc1 | inactive |
| CCOC(=O)N1CCC(NS(=O)(=O)c2cccc(S(=O)(=O)[C@H]3CCS(=O)(=O)C3)c2)CC1 | inactive |
| COc1ccc(S(=O)(=O)Nc2cccc3c2O[C@@H](CN(C)S(=O)(=O)c2ccc(C)cc2)[C@@H](C)CN([C@@H](C)CO)C3=O)cc1 | inactive |
| O=C1NC[C@@H]2CN(C(=O)c3cnccn3)C[C@@H]12 | inactive |
| C[C@@H]1CN([C@@H](C)CO)C(=O)c2cccc(NS(=O)(=O)c3ccc(F)cc3)c2O[C@H]1CN(C)Cc1ccncc1 | inactive |
| CS(=O)(=O)NC[C@@H]1OC[C@@H]2CN(C(=O)c3ccnnc3)CC[C@@H]21 | inactive |
| COC(=O)C1=CO[C@@H](O[C@@H]2O[C@H](CO)[C@@H](O)[C@H](O)[C@H]2O)/C(=C\CO)[C@@H]1CC(=O)OCCc1ccc(O)cc1 | inactive |
| C[C@H](CO)N1C[C@H](C)[C@H](CN(C)S(C)(=O)=O)Oc2ncc(C#CC(C)(C)O)cc2C1=O | inactive |
| C[C@H]1CN([C@@H](C)CO)C(=O)CCCn2cc(nn2)CO[C@H]1CN(C)C(=O)C1CC1 | inactive |
| COc1ccc(CN(C)C[C@@H]2Oc3ccc(NC(=O)CCN4CCOCC4)cc3C(=O)N([C@@H](C)CO)C[C@@H]2C)cc1 | inactive |
| C[C@@H]1CCCCO[C@H](CN(C)C(=O)Nc2ccc(F)cc2)[C@H](C)CN([C@@H](C)CO)C(=O)c2cc(NS(=O)(=O)c3cccs3)ccc2O1 | inactive |
| O=C1NCCOc2ccc([N+](=O)[O-])cc21 | inactive |
| C[C@@H]1CN([C@@H](C)CO)C(=O)Cc2cc(NC(=O)CCN3CCOCC3)ccc2O[C@H]1CN(C)C(=O)Nc1ccc2c(c1)OCO2 | inactive |
| O=C(N[C@@H]1C=C[C@@H](CC(=O)N2CCOCC2)O[C@H]1CO)c1ccccn1 | inactive |
| COc1ccc(-c2nc3cc(C4=NNC(=O)CC4C)ccc3[nH]2)cc1 (stereo not given) | inactive |
| C[C@@H]1CN([C@@H](C)CO)C(=O)c2cc(C#CCN(C)C)cnc2O[C@H]1CN(C)S(=O)(=O)c1ccccc1 | inactive |
| C[C@@H]1CN([C@@H](C)CO)C(=O)c2cc(NC(=O)Nc3ccc(C(F)(F)F)cc3)ccc2O[C@@H](C)CCCCO[C@H]1CN(C)Cc1ccc2c(c1)OCO2 | active |
| Cc1noc(C)c1NC(=O)N(C)C[C@@H]1Oc2ccc(NS(=O)(=O)c3ccccc3)cc2C(=O)N([C@@H](C)CO)C[C@@H]1C | inactive |

| Structure (SMILES) | cytotoxicity call |
| --- | --- |
| CCCNC(=O)N[C@H]1C=C[C@H](CC(=O)N2CCN(C)CC2)O[C@@H]1CO | inactive |
| COC(=O)C[C@](O)(CCCC(C)(C)O)C(=O)O[C@@H]1C(OC)=C[C@]23CCCN2CCc2cc4c(cc2[C@H]13)OCO4 | active |
| C[C@@H]1CCCCO[C@@H](CN(C)C(=O)CCCN(C)C)[C@H](C)CN([C@@H](C)CO)C(=O)c2cc(NC(=O)Nc3ccc(C(F)(F)F)cc3)ccc2O1 | inactive |
| C[C@@H]1CN([C@H](C)CO)C(=O)c2cc(NC(=O)c3ccccc3)ccc2O[C@@H](C)CCCCO[C@H]1CN(C)Cc1ccc2c(c1)OCO2 | active |
| C[C@@H]1CCCCO[C@@H](CN(C)S(=O)(=O)c2cccs2)[C@H](C)CN([C@H](C)CO)C(=O)c2cc(NC(=O)Nc3ccc(F)cc3)ccc2O1 | inactive |
| COc1ccc(COC[C@]23N=C4SCCCN4[C@H](c4ccccc4O2)[C@H]3CO[Si](C)(C)C(C)(C)C)cc1 | active |
| C[C@@H]1CN([C@@H](C)CO)C(=O)c2cc(NS(=O)(=O)c3cn(C)cn3)ccc2O[C@@H](C)CCCCO[C@H]1CN(C)S(=O)(=O)c1cn(C)cn1 | inactive |
| C[C@H]1CN([C@@H](C)CO)C(=O)Cc2cc(NS(C)(=O)=O)ccc2O[C@H]1CN(C)C(=O)Nc1ccc2c(c1)OCO2 | inactive |
| COc1ccc(S(=O)(=O)N(C)C[C@@H]2Oc3ccc(NS(=O)(=O)c4ccc(F)cc4)cc3C(=O)N([C@H](C)CO)C[C@H]2C)cc1 | inactive |
| O=C(C[C@H]1CC[C@@H]2[C@H](COC[C@@H](O)CN2C(=O)Nc2ccc3c(c2)OCO3)O1)N1CCN(c2ccccc2)CC1 | inactive |
| C[C@@H]1CCCCO[C@@H](CN(C)C(=O)c2ccccc2)[C@@H](C)CN([C@H](C)CO)C(=O)c2cc(NC(=O)Nc3ccc4c(c3)OCO4)ccc2O1 | inactive |
| O=C1O[C@H](c2ccccc2)[C@H](c2ccccc2)N2[C@H]1[C@@H](C(=O)Nc1nc3ccccc3s1)[C@]1(C(=O)Nc3ccccc31)[C@H]2c1ccc(OCCO)cc1 | inactive |
| C[C@@H]1CCCCO[C@@H](CN(C)Cc2ccc(C(F)(F)F)cc2)[C@@H](C)CN([C@H](C)CO)C(=O)c2cc(NC(=O)NC3CCCCC3)ccc2O1 | inactive |
| CCNc1nc(NCC)nc(OCC#N)n1 | inactive |
| C[C@@H]1CCCCO[C@H](CN(C)Cc2ccccc2)[C@H](C)CN([C@H](C)CO)C(=O)c2cc(NS(=O)(=O)c3ccccc3)ccc2O1 | inactive |
| C[C@H]1CN([C@@H](C)CO)C(=O)c2cc(NC(=O)CCC(F)(F)F)ccc2O[C@H]1CN(C)S(=O)(=O)c1cn(C)cn1 | inactive |
| CC1=CC2=NC(=O)C[C@](C)(C(=O)O)N2C=C1 | inactive |
| Cc1ccc(S(=O)(=O)Nc2ccc3c(c2)C(=O)N([C@H](C)CO)C[C@H](C)[C@H](CN(C)Cc2ccc4c(c2)OCO4)OCCCC[C@H](C)O3)cc1 | active |
| C[C@@H]1CCCCO[C@H](CN(C)C(=O)Nc2ccc(F)cc2)[C@@H](C)CN([C@H](C)CO)C(=O)c2cc(NC(=O)Nc3ccc(C(F)(F)F)cc3)ccc2O1 | inactive |
| Cc1noc(C)c1NC(=O)Nc1ccc2c(c1)CC(=O)N([C@H](C)CO)C[C@H](C)[C@@H](CN(C)S(=O)(=O)c1ccccc1)O2 | inactive |
